Assay results as given in PubChem BioAssay AID624417 (National Center for Advancing Translational Sciences (NCATS), 2012).
Out of some 410,000 compounds screened, about 6,400 (1.6%) were called active. The shares of active, inactive and inconclusive entries below differ from those in the screen. Calls follow the shape of the dose curve; as a rule, active = well fitted inhibition curve with a large enough effect; inconclusive = small, poorly fitted or top-dose-only effect; inactive = no such curve, though single readings can be large or run the other way. Potencies of inconclusive entries are left out as doubtful fits.

What follows are compounds tested against Glucagon-like peptide 1 receptor (Homo sapiens) (UniProt P43220) (assay: qHTS of GLP-1 Receptor Inverse Agonists (Inhibition Mode)). Conditions: HEK293 GLP-1R CRE-luciferase, luminescence, 24 h, GLP-1R form is constitutively active; series mostly up to 38.3 µM.
In short: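 Luminescence readout: a drop in cAMP-driven luciferase signal flags inverse agonism at a constitutively active GLP-1R stably expressed in HEK293. Compound exposure lasted 24 hr at 37 deg C, 5% CO2.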
Also: nearly all actives have a fitted effect of over 55% in size.
Potency is read from the fitted curve at half-maximal effect; tags tell the direction and shape of the fitted curve.

UniProt P43220, sequence (P43220 whole entry, looked up): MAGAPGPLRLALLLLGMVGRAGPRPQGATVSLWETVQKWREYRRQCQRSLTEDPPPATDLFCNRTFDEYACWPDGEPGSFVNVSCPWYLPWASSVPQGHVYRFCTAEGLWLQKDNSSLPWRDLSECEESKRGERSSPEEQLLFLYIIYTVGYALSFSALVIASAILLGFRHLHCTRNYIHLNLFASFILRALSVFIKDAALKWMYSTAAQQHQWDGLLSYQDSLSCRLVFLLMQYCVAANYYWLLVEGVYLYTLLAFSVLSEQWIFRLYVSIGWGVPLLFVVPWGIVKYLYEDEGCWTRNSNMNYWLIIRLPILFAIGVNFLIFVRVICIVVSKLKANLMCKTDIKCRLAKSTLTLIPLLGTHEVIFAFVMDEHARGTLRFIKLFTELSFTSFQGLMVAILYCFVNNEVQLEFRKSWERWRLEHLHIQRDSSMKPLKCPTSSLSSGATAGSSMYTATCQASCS

Compound | Potency
CSc1ccc(CN2CCCN(C)CC2)cc1 | inconclusive [inhibitor, single point]
CCCc1c(-c2ccccc2Br)ncn1Cc1ccccc1OC | inconclusive [inhibitor, partial curve, poor fit]
CCOc1ccc(CCN2C(=S)N([C@@H](CC(C)C)CN3CCCC3CN3C(=S)NC[C@@H]3Cc3ccc(O)cc3)C[C@@H]2Cc2ccccc2)cc1 (stereo not given in full) | active: 11.2 µM
c1ccc2c(-c3csc(-c4ccncc4)n3)c[nH]c2c1 | inconclusive [inhibitor, full curve, poor fit]
COc1ccc(C)cc1NC(=O)c1sc2ncnc(N3CCN(c4ccccn4)CC3)c2c1C | inactive
Cc1ccc(N(CC(=O)N/N=C/c2cc(C)n(-c3ccccc3C)c2C)S(C)(=O)=O)cc1 | inconclusive [inhibitor, partial curve, poor fit]
O=C(CCNS(=O)(=O)c1ccccc1C(F)(F)F)NCCCSc1ccccc1 | active: 12.6 µM
O=S(=O)(Cc1ccccc1)Nc1cccc(F)c1 | inconclusive [inhibitor, single point]
COc1cc(NC(=S)N2CCN(Cc3ccccc3)CC2)cc(OC)c1 | inconclusive [inhibitor, partial curve, poor fit]
COc1ccc(NCc2cccn2-c2nnc(N3CCC(C)CC3)s2)c(OC)c1 | inconclusive [inhibitor, partial curve]
O=C(c1ccc(Br)cc1)c1cn[nH]c1-c1ccccc1O | inconclusive [inhibitor, partial curve, poor fit]
NCCCCc1ccc2ccc3cccc4ccc1c2c34 | inconclusive [inhibitor, single point]
O=C(N/N=C/c1ccccc1OC(F)F)c1cc(-c2ccncc2)nc2ccccc12 | inconclusive [inhibitor, full curve, poor fit]
O=C(CCNS(=O)(=O)/C=C/c1ccccc1)NCCc1c[nH]c2ccccc12 | inconclusive [inhibitor, single point]
Cc1cc(C(=O)CSc2ccc(Cl)cc2)cc(C)c1OC(=S)N(C)C | inconclusive [inhibitor, single point]
COc1ccc(CNC(=O)CC23CC4CC(CC(C4)C2)C3)cc1 | inconclusive [inhibitor, single point]
O=C(CSc1nc2c(c(=O)[nH]1)CCC2)Nc1cc(C(F)(F)F)ccc1Cl | inactive
Cc1cccc(-c2nc(S(=O)(=O)c3ccccc3)c(N3CCN(c4ccccc4)CC3)o2)c1 | inactive
O=C(NCC1CCCO1)c1cc(S(=O)(=O)Nc2ccc(Br)cc2)ccc1Cl (stereo not given) | inactive
CCc1nc(SCc2nc3ccccc3[nH]2)c2oc3ccccc3c2n1 | inconclusive [inhibitor, single point]
O=C(Nc1ccc2ccccc2c1)c1cn(-c2ccccc2)nc1-c1cccs1 | inconclusive [inhibitor, partial curve, poor fit]
CC(c1nnc(Sc2nnnn2-c2ccccc2)n1-c1ccc(F)cc1)N(C)C (stereo not given) | inconclusive [inhibitor, single point]

Compound | Potency
O=C1c2ccccc2C(=O)N1CCCCN(C(=O)c1ccco1)c1ccc(Cl)cc1 | inconclusive [inhibitor, partial curve]
Cc1ccccc1-n1c(C)cc(/C=N/NC(=O)c2ccncc2)c1C | inactive
Cc1cc(SCC(=O)c2cccs2)nc2ccccc12 | inconclusive [inhibitor, single point]
O=C(/C=C/Nc1ccccc1Oc1ccccc1)c1ccco1 | inconclusive [inhibitor, single point]
Cc1ccc(C(=O)Nc2cccc(C(=O)NCc3ccco3)c2)cc1 | inconclusive [inhibitor, partial curve, poor fit]
O=C(Cn1cc(SCc2ccc(F)cc2)c2ccccc21)N1CCCC1 | inconclusive [inhibitor, single point]
Cc1cc(C)c(C)c(S(=O)(=O)N2CCN(C(=O)c3cc(S(=O)(=O)N4CCOCC4)ccc3F)CC2)c1C | inconclusive [inhibitor, single point]
Cc1ccc(-n2c(=S)[nH]c3c(oc4ccccc43)c2=O)cc1C | inactive
COc1ccc(NC(=S)NCCSc2ccc(Cl)cc2)c(OC)c1 | inconclusive [inhibitor, single point]
CC(NC(=O)c1ccco1)C(=O)N1CCN(C(c2ccccc2)c2ccccc2)CC1 (stereo not given) | inconclusive [inhibitor, partial curve, poor fit]
COc1ccc(CNC(=O)C(c2ccc(C)o2)N(C(=O)c2csnn2)c2ccc(C(C)C)cc2)cc1 (stereo not given) | active: 10 µM
COc1ccccc1-n1cc(CN2CCN(C3CCCCC3)C(CCO)C2)cn1 (stereo not given) | inconclusive [inhibitor, partial curve, poor fit]
O=C(NCCC1=CCCCC1)C1CCC(CNc2nc(=S)[nH]c3ccccc23)CC1 (stereo not given) | inactive
CCC(C(=O)NCc1ccccc1)n1c(-c2cccs2)nc2ccccc21 (stereo not given) | inconclusive [inhibitor, single point]
COc1ccc(/C(C)=N/OC/C(O)=C(\C#N)c2nc3ccccc3[nH]2)c(OC)c1 | inconclusive [inhibitor, single point]
Cc1ccc(-c2cnc(SCC(=O)N3CCCc4ccccc43)n2C)cc1 | inconclusive [inhibitor, single point]
Cc1nn(-c2ccc(Cl)nn2)c(=O)c2ccccc12 | inactive
O=C(Cn1ccc([N+](=O)[O-])n1)NCCc1c[nH]c2ccccc12 | inactive
Cc1nn(-c2ccccc2)c2nc(-c3ccccc3)cc(C(=O)N3CCOCC3)c12 | inconclusive [inhibitor, partial curve, poor fit]
Cc1ccc(/C=C/C(=O)N2CC(C)CC(C)C2)o1 (stereo not given) | active: 10 µM
CNc1ncnc(NC)c1[N+](=O)[O-] | inactive
CCOc1ccc(OCC)c(NS(=O)(=O)c2ccc3c(c2)CCCN3C(C)=O)c1 | inactive

Compound | Potency
Cc1ccc(S(=O)(=O)N(C)C[C@H]2Oc3cc(C#Cc4ccccc4)ccc3S(=O)(=O)N([C@H](C)CO)C[C@@H]2C)cc1 | inconclusive [inhibitor, partial curve]
CCCn1c(C(O)c2cccc(OC)c2)nc2ccccc21 (stereo not given) | inconclusive [inhibitor, single point]
O=[N+]([O-])c1ccc(O)c(C2CCCCC2)c1 | inconclusive [inhibitor, partial curve, poor fit]
CC(C)N(CCNCC(O)COc1ccc(C(C)(C)c2ccccc2)cc1)C(C)C (stereo not given) | active: 3.98 µM
COc1cc2c(C#N)c(N3CCc4ccccc4C3)nc(N)c2c(N)n1 | inactive
COC(=O)c1c(NC(=O)Cn2cnc([N+](=O)[O-])n2)sc2c1CCC(C)C2 (stereo not given) | inconclusive [inhibitor, single point]
Cc1cccc(N2C(=O)C(CC(=O)Nc3ccc(Cl)cc3)N(Cc3ccco3)C2=O)c1 (stereo not given) | inconclusive [inhibitor, single point]
COc1ccccc1NS(=O)(=O)c1ccc(N/N=C(\C)C(C)C)c([N+](=O)[O-])c1 | inconclusive [inhibitor, single point]
CCC1=NN(C(=O)COc2ccccc2)C(O)(c2ccc(Br)cc2)C1 (stereo not given) | inconclusive [inhibitor, partial curve, poor fit]
Cc1oc2ccc(O)c(CN3CCN(C)CC3)c2c1C(=O)Nc1cccc(Cl)c1C | inactive
CC1(C(=O)NS(=O)(=O)c2ccc(Cl)cc2)CCN1C(=O)Cc1cccs1 (stereo not given) | inconclusive [inhibitor, single point]
CCn1c(C(=O)NCc2ccc(OC(C)C)cc2)cc2oc3ccccc3c21 | inconclusive [inhibitor, full curve]
COc1ccc(CCN2C(=O)CC(NC34CC5CC(CC(C5)C3)C4)C2=O)cc1OC (stereo not given) | inconclusive [inhibitor, single point]
Clc1cc2nc[nH]c2cc1Cl | inactive
CCOc1ccc(S(=O)(=O)Nc2cccc(C(=O)N3CCN(c4cccc(OC)c4)CC3)c2)cc1 | inconclusive [inhibitor, single point]
CSc1ncc(CN2CCc3c([nH]c4ccccc34)C2c2cccc(O)c2)cn1 (stereo not given) | inconclusive [inhibitor, single point]
Cc1ccc(C)c(N2CCN(C(=O)c3cc(C)nc4c3c(C)nn4-c3cccc(F)c3)CC2)c1 | inactive
Cc1cc2cc(CCNC(=O)c3ccc(Br)o3)c(=O)[nH]c2cc1C | inconclusive [inhibitor, full curve, poor fit]
Cc1ccc(N(Cc2ccccc2)C(=O)c2cc(S(=O)(=O)N3CCOCC3)ccc2N2CCCC2)cc1 | inconclusive [inhibitor, single point]
COC(=O)c1cc(OC)c(OC)cc1NC(=S)N1CCN(C/C=C/c2ccccc2)CC1 | inconclusive [inhibitor, partial curve, poor fit]
Nc1ccc2nc(SCc3ccc([N+](=O)[O-])cc3)sc2c1 | inconclusive [inhibitor, single point]
